Measurements reported in article PMC9117659, “Phase transition and remodeling complex assembly are important for SS18-SSX oncogenic activity in synovial sarcomas” (Nature Communications, 2022).
No constants are given. Whether binding was seen depends on the method and setting. For some of these results: In cells and extracts the contact can be indirect. Some results given as binding are weak or reduced against the parent protein; the word gives no strength. For some of these results: Tags and fused reporters may be left off the sequences shown. Values belong to the molecule of their own block, whether it stands above or below them.

Sequences of proteins named here, by UniProt entry; tags and fusion partners are left off. A change or cut given only in a name is not applied to a line headed by its entry. A line that says so, or that is headed by a name, gives the form on record, which may keep a tag or linker.
GFP-tagged SS18 (GFP-SS18), wild type (Q15532-2, form named): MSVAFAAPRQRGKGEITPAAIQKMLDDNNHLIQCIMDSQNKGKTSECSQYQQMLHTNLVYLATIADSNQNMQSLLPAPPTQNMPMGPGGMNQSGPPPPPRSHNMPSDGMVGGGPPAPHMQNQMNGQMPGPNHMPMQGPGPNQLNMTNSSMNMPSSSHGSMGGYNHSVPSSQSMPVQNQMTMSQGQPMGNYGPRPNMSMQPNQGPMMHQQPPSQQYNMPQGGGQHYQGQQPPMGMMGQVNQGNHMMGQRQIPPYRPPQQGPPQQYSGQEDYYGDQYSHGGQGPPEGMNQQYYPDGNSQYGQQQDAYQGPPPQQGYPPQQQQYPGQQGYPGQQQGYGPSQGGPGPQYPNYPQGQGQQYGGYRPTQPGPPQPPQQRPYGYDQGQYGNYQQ
SS18(3M), purified recombinant (I32E, L54E, A65E) (Q15532-2, form named): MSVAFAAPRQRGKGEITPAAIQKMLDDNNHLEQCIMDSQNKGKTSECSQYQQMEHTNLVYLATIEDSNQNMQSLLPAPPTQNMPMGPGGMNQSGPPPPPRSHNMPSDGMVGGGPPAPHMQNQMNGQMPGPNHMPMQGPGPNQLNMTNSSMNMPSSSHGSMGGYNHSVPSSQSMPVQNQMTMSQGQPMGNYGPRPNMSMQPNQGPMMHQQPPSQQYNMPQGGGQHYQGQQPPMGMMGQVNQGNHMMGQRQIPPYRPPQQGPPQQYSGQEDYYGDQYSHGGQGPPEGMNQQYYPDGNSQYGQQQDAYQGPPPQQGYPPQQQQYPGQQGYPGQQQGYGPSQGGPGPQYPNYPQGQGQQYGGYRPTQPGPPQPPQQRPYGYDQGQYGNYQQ
UniProt Q16384: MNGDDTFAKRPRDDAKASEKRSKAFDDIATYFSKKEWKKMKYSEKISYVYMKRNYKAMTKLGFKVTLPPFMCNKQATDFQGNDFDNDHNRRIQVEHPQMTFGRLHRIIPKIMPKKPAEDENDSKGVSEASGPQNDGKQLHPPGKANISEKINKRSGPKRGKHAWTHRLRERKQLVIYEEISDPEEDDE
UniProt P22082: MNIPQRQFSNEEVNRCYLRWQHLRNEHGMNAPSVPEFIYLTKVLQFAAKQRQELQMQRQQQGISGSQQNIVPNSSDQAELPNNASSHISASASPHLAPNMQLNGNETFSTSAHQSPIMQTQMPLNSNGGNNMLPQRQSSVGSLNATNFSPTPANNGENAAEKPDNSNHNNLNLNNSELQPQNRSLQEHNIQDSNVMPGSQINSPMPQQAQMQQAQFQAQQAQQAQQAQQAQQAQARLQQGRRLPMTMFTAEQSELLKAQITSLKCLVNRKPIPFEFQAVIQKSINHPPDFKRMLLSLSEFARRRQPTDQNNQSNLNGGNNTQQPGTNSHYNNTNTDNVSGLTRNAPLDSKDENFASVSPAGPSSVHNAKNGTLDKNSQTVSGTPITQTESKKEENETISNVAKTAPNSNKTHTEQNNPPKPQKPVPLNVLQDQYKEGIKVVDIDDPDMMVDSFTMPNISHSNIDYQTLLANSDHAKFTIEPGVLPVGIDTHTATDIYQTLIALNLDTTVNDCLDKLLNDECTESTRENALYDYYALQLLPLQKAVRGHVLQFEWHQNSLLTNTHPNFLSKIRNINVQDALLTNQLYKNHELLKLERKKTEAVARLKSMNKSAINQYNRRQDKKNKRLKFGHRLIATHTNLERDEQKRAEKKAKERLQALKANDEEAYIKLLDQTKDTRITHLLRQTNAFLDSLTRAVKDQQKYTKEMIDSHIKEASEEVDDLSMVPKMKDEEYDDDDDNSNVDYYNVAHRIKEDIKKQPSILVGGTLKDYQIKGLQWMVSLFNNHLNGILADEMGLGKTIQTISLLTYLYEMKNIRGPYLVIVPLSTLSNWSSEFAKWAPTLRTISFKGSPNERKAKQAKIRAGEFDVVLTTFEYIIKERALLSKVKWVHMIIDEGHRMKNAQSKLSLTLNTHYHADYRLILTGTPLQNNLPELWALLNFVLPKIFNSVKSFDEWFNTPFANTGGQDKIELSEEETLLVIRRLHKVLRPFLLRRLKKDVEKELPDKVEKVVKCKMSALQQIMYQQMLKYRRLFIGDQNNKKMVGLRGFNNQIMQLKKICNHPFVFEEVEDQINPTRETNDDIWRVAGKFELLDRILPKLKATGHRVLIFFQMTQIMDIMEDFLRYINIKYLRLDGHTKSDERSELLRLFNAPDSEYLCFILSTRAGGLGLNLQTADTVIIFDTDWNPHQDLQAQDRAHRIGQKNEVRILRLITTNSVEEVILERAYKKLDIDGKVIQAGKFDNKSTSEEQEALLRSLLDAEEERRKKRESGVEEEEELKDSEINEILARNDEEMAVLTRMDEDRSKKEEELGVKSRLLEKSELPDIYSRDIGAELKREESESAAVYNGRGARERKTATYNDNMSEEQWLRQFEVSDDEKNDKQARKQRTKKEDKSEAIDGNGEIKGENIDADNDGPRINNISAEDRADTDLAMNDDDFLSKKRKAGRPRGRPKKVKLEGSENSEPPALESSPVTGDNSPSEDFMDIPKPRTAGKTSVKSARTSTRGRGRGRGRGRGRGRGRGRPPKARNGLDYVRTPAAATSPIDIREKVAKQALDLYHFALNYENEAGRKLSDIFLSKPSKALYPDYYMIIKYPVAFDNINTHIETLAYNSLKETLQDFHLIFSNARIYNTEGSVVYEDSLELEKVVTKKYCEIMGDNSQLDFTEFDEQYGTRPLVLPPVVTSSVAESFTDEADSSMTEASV

Assays:
[1] = target: T1, GFP-tagged SNF11 (GFP-SNF11) (S. cerevisiae) (UniProt P38956); test: co-IP; HEK293T cells transfected with GFP- and Myc-tagged plasmids, lysate (50 mM Tris-HCl pH 7.4, 150 mM NaCl, 0.5% NP40, 0.5% Triton X-100), agarose-conjugated anti-GFP antibodies 30 min at 4 °C, blot with anti-Myc and anti-GFP
T1 sequence: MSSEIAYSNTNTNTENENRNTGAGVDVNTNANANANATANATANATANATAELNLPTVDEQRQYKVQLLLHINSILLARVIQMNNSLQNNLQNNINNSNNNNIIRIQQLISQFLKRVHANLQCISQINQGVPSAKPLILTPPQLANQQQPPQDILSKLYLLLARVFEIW

[2] = target: SS18-SSX1 oncofusion protein, wild type, GFP-tagged (human) (UniProt Q15532+Q16384); test: as above
[3] = target: SS18(3M)-SSX1, GFP-tagged (I32E, L54E, A65E in SS18) (human) (UniProt Q15532+Q16384); test: as above
[4] = target: GFP-tagged SS18 (GFP-SS18), wild type (human) (UniProt Q15532); test: as above
[5] = target: SS18(3M), purified recombinant (I32E, L54E, A65E) (human) (UniProt Q15532); test: co-sedimentation; sedimentation assay of phase-separated SS18 with BRG1^(1-282), each protein 60 µM, 50 mM Tris-HCl pH 7.5, 150 mM NaCl; supernatant and pellet on SDS-PAGE; both purified

Molecule: SS18-SSX1 oncofusion protein, wild type, GFP-tagged (from UniProt Q15532-2 1-379; Q16384 111-188)
binding [2]: binds

Molecule: SS18(3M)-SSX1, GFP-tagged (I32E, L54E, A65E in SS18) (from UniProt Q15532-2 1-379; Q16384 111-188)
binding [3]: binds

Molecule: Myc-SNF2 Q252A, Q259A (from UniProt P22082 1-1703)
binding [1]: no binding

Molecule: GFP-tagged SS18 (GFP-SS18), wild type (from UniProt Q15532-2 1-387)
binding [4]: binds

B1: BRG1^(1-282), N-terminal 282-residue fragment of BRG1 (domain or fragment, human, UniProt P51532 1-282, looked up)
chain: MSTPDPPLGGTPRPGPSPGPGPSPGAMLGPSPGPSPGSAHSMMGPSPGPPSAGHPIPTQGPGGYPQDNMHQMHKPMESMHEKGMSDDPRYNQMKGMGMRSGGHAGMGPPPSPMDQHSQGYPSPLGGSEHASSPVPASGPSSGPQMSSGPGGAPLDGADPQALGQQNRGPTPFNQNQLHQLRAQIMAYKMLARGQPLPDHLQMAVQGKRPMPGMQQQMPTLPPPSVSATGPGPGPGPGPGPGPGPAPPNYSRPHGMGGPNMPPPGPSGVPPGMPGQPPGGPPK
notes: Cloned into a modified pET32a (Trx-his6, N-terminal); the methods describe PreScission cleavage of the Trx-his6 tag in general; Cy3-labelled only for imaging; source: E. coli BL21(DE3) Codon Plus, purified (Ni-NTA, SEC, ion exchange); not shown: Trx, N-terminal, cleaved; His6, N-terminal, cleaved
binding [5]: no binding (tested: 60 µM)

Second part, the molecule after the results:

binding [1]: binds
Molecule: Myc-SNF2, wild type (from UniProt P22082 1-1703)

binding [4]: binds
Molecule: Myc-BRG1, wild type (from UniProt P51532 1-1647)
